# Hit rate of the full screen: of about 350,000 compounds, about 990 (0.28%) were called active. The inconclusive results got no clear call from the source; some entries with a clear call stand among them for comparison. Calls follow the shape of the dose curve; as a rule, active = well fitted inhibition curve with a large enough effect; inconclusive = small, poorly fitted or top-dose-only effect; inactive = no such curve, though single readings can be large or run the other way. A potency beside an inconclusive call is a rough fit, not a confirmed value.
# Biological target: Tyrosyl-DNA phosphodiesterase 1 (Homo sapiens) (UniProt Q9NUW8)
# Sequence of UniProt Q9NUW8 (Q9NUW8 whole entry, looked up): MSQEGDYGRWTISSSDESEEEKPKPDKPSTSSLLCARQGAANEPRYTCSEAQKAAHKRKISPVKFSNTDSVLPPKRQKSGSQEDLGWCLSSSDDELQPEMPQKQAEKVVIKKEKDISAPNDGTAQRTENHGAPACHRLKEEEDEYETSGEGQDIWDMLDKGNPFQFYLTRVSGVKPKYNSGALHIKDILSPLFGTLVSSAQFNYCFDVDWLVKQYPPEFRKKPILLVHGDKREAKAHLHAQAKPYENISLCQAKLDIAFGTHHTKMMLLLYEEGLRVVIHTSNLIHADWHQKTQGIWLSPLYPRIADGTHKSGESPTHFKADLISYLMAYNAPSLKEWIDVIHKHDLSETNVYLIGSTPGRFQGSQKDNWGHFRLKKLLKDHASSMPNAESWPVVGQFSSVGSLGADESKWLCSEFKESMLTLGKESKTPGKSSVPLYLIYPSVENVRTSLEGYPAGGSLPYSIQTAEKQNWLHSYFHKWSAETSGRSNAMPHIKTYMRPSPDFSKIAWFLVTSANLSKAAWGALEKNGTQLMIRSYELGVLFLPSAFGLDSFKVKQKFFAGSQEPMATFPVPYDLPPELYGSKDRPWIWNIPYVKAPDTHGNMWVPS
# Experiment: qHTS Assay for Inhibitors of Tyrosyl-DNA Phosphodiesterase (TDP1); also: nearly all actives have a fitted effect of over 40% in size
# Details: recombinant TDP1, AlphaScreen DNA substrate cleavage; activity change, negative = inhibition: at 130 µM (top of the series) unless noted
# Method in brief: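 Recombinant human Tdp1 (E. coli-expressed, 1 nM final) preincubated with compounds 15 min at room temperature, then 5'-biotin/3'-phosphotyrosine-FITC DNA substrate (15 nM final) added for 5 min. AlphaScreen beads (10 ug/ml final) added 10 min; cleavage lowers signal.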
# % is scaled to controls: 0 for no effect and ±100 for the full control effect; potency is read from the fitted curve at half-maximal effect; tags tell the direction and shape of the fitted curve.
Compound,Potency,"activity change, negative = inhibition"
COc1ccccc1CN1C(=O)CN(C2CCCCCC2)C(=O)C1c1ccc(F)cc1 (stereo unspecified),"inconclusive: 39.8 µM [inhibitor, single point]",–
Cn1c(=O)c2c(ncn2CC(=O)N/N=C/c2c[nH]c3ccccc23)n(C)c1=O,active: 79.4 µM,–
S=C1NC=NC2N=CNC12 (stereo unspecified),active: 14.1 µM,–
C=CCN1C(=O)c2cccc3c(N4CCCCC4)ccc(c23)C1=O,"inconclusive: 10 µM [inhibitor, partial curve]",–
COC(=O)[C@@]1(Cc2ccc(F)cc2)[C@H]2c3cc(C(=O)N(C)C)n(Cc4ccsc4Br)c3C[C@H]2CN1C(=O)c1ccccc1,inactive,–
Cc1ccc(/C=C/c2nc3sc(C(=O)O)c(C)c3c(=O)[nH]2)cc1[N+](=O)[O-],active: 11.2 µM,–
O=c1cc2nc(-c3ccccc3)nc(SCCOc3ccc(Cl)cc3)n2[nH]1,"inconclusive: 22.4 µM [inhibitor, partial curve]",–
O=C(CCC(=O)c1cccs1)NNC(=O)c1cccc(Cl)c1,–,inactive: 0.156% [at 0.505 µM]
O=C(c1cc2c(s1)-c1ccccc1S(=O)(=O)C2)N1CCN(Cc2ccccc2)CC1,inactive,–
CCc1ccc(OCc2cnc(Cl)s2)cc1,"inconclusive: 56.2 µM [inhibitor, partial curve, poor fit]",–
C=C(Cl)COc1ccc2c(CCC)cc(=O)oc2c1,active: 89.1 µM,–
Cc1ccc(-c2nc3cc(NC(=O)Cc4ccc(Cl)cc4)ccc3o2)cc1,–,inactive: -9.25% [at 12.3 µM]
COc1ccc(/C=C(\C#N)C(=O)OCC(=O)NCc2ccco2)cc1,inactive,–
CC1CN(C2CCN(C(=O)COc3ccccc3)CC2)CC(C)O1 (stereo unspecified),"inconclusive: 17.8 µM [inhibitor, partial curve, poor fit]",–
COc1ccc2c(c1)CCC/C2=N\OC(=O)c1ccccc1F,"inconclusive: 100 µM [inhibitor, single point]",–
O=C(COc1ccccc1F)N1CCN(S(=O)(=O)/C=C/c2ccccc2)CC1,inactive,–
COc1ccc(S(=O)(=O)NCC2CCCN(C(=O)c3cccnc3C)C2)cc1 (stereo unspecified),"inconclusive: 31.6 µM [inhibitor, single point]",–
CCCc1c(C)[nH]c2ccc(C(=O)O)cc2c1=S,"inconclusive: 4.47 µM [inhibitor, full curve]",–
O=C(CCc1nc2ccccc2c(=O)[nH]1)OCCOc1ccc(Cl)cc1,"inconclusive: 100 µM [inhibitor, single point]",–
COc1ccc(-c2nc3ccc(NS(C)(=O)=O)cc3o2)cc1,inactive,–
N=C1C(c2nc3ccccc3c(=O)[nH]2)=C(O)CN1CCc1ccccc1,active: 70.8 µM,–

# Reference: PubChem BioAssay AID485290 (National Center for Advancing Translational Sciences (NCATS), 2010)
